The values that follow come from PubChem BioAssay AID488969 (Vanderbilt High Throughput Screening Facility, 2010).

Each structure is given as a SMILES string. Whole data set: some 110,000 compounds, median “z-score” near -0.1, cut for the highest 2% near 2. This is one part of the list.

In this assay the target is Metabotropic glutamate receptor 8 (Rattus norvegicus) (UniProt P70579). As to the kind of experiment: mGluR8 Gi/Go-coupled signaling modulation – cell-based, rat, thallium flux, HTS, primary screen (AID 488969). The conditions noted are these: HEK293 rat mGluR8, GIRK (G protein-gated inwardly rectifying potassium channel) thallium flux, FluoZin2; at 10 µM; stronger effect = higher value; submaximal glutamate (EC20) added with thallium.
Sequence of UniProt P70579 (P70579 whole entry, looked up): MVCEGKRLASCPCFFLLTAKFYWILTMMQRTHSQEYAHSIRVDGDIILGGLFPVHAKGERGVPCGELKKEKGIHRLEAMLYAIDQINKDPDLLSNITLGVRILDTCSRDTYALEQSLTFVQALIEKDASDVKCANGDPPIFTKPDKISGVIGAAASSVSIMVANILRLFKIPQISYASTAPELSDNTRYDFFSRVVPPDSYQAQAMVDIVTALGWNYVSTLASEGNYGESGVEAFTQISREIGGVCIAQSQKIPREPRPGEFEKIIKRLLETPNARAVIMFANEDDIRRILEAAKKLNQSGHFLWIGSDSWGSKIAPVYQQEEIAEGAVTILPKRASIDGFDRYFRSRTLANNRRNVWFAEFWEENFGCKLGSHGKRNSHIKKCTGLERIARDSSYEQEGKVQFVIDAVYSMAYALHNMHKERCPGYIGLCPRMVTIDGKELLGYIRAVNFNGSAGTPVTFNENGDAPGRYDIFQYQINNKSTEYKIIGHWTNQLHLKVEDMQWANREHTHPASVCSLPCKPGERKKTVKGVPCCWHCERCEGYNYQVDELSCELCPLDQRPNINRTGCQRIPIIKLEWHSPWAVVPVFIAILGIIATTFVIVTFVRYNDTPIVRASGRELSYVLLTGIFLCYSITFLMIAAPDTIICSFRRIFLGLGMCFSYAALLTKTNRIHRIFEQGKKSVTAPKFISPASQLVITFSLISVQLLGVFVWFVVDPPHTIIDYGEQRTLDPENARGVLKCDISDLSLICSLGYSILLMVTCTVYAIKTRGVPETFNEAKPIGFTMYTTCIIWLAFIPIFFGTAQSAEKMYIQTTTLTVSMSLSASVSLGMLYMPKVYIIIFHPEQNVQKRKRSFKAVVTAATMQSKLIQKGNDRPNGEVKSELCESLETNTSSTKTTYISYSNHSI
In turn, `CCOc1cccc(OCCOCCNC(C)(C)C)c1` displayed a z-score of 0.278.
On to `O=C(CSc1nnc(Cn2nnc3ccccc32)o1)Nc1ccc(Cl)cc1`, for which the z-score is -0.0906.
As for `CC(=O)CC(=O)Nc1ccccc1NC(C)=O`, the figure is -0.363; as for `Cc1sc(N)c(C#N)c1C`, -0.149.
Next, `CC1(C)NC(=O)N(CCOCCOc2cccc(Oc3ccccc3)c2)C1=O`: -0.263; `CCOC(=O)c1cnc(SCC(=O)Nc2cc(OC)cc(OC)c2)nc1N`: 0.341; `Cc1cc(C)cc(OCC(=O)N/N=C/c2ccncc2)c1`: -0.147.
Next, `COc1ccc(CCNC(=O)C2CCCN(Cc3nc(-c4cccc(Cl)c4)oc3C)C2)cc1OC` (stereo not given): 1.07; `CC(C)Nc1ncnc2c1cnn2-c1ccccc1`: -0.303; `O=C(CSc1nc2ccccc2c(=O)n1C1CC1)NCc1ccccc1`: -0.35.
With `Cc1ccc(SCC(=O)N2CCc3ccccc32)cc1`, the z-score is -0.216.
As for `CCCOc1ccccc1-c1nc(SCCC(=O)O)n[nH]1`, the z-score is -1.73.
Regarding `COc1ccc(C)cc1-n1nnnc1SCC(=O)NC(=O)NCc1ccco1`, the z-score is -0.65.
Next, `N#CC1(Cc2ccccc2)c2ccccc2C=CN1C(=O)c1ccccc1` (stereo not given): -0.211; `CCOC(=O)C1CCN(C(=O)COc2ccc(Cl)cc2C)CC1`: -0.0831; `CCOC(=O)c1cc2n(n1)C(C(F)(F)F)CC(C)N2` (stereo not given): 0.117.
In turn, `CCc1cc2cc(C(=O)Nc3ccc(F)cc3)sc2s1` came in with a z-score of -0.0494.
With `Cc1cc(NC(=O)c2ccccc2Cl)c(C(C)C)cc1O`, the z-score was -0.112.
As for `O=c1[nH]nc(Cc2ccc(Cl)cc2Cl)c2ccccc12`, the figure is -0.341; as for `CN1CCN(c2nc(-c3ccccc3)c3cc(Cl)ccc3n2)CC1`, -0.517; as for `CCN(CC)c1ccc(/C=c2/sc3nnc(-c4ccccc4C)n3c2=O)cc1`, -0.244.
As for `O=[N+]([O-])c1ccc(NC(=S)NCCc2ccccc2)cc1`, the figure is 2.91; as for `CCCCNC(=O)Nc1ccccc1C(=O)Nc1ccc(OC)cc1`, 0.159.
As for `COCc1cc(=O)n2[nH]c(-c3ccsc3-n3c(C)ccc3C)cc2n1`, the figure is 0.922.
In turn, `COCCN(Cc1cc2cc3c(cc2[nH]c1=O)OCO3)C(=O)c1cccs1` yielded a z-score of -0.16.
As for `O=C(Cn1nc(C(F)(F)F)cc1C1CC1)Nc1ccccc1F`, the figure is -0.173.
For `CCc1cccc(CC)c1NC(=O)COC(=O)c1ccc2c(c1)S(=O)(=O)c1ccccc1C2=O`, the z-score was -0.326.
As for `Cc1cc(Cl)c(S(=O)(=O)NCc2ccccc2)cc1OCC(N)=O`, the figure is -0.00164.
Next, `Cc1nn(CC(O)Cn2c3c(c4ccccc42)CCN(C)C3=O)c(C)c1Br` (stereo not given): -0.0185; `Cc1cc(F)ccc1NCC(=O)Nc1ccc(Br)cc1C`: -0.568.
Next, `CCC(=O)Nc1c(C(=O)Nc2cccc(OC)c2)oc2ccccc12`: -0.158; `CCOC(=O)C1CCN(C(=O)Cc2ccc(OC)c(OC)c2)CC1`: -0.0395.
In turn, `Cc1cc(C)c(NC(=O)c2ccc(S(=O)(=O)N3CCOCC3)cc2)c(C)c1` registered a z-score of 0.0702.
Next, `Oc1cccc(/C=N/Nc2ncnc3c2ncn3Cc2ccccc2)c1`: -0.119; `O=C(NCc1ccc(OC(F)(F)F)cc1)C1CC(c2c(Cl)cccc2Cl)=NO1` (stereo not given): -0.0614.
Next, `COC(=O)C1=C(N)Oc2cc(C)n(CCN3CCOCC3)c(=O)c2C1c1cccnc1` (stereo not given): 0.0516.
As to `C=CCn1c(SCc2c(C(=O)OC)sc(N)c2C(=O)OC)nnc1-c1ccc(Cl)cc1`, the z-score is -0.846.
Next, `Cc1cccc(NC(=S)N(CCCN2CCOCC2)Cc2ccccn2)c1`: 0.37; `NC(=O)CSc1nnnn1CC(CC(=O)O)c1ccccc1` (stereo not given): 0.894; `Cc1ccc2nc(C(O)C(O)c3nc4ccc(C)cc4[nH]3)[nH]c2c1` (stereo not given): -0.307.
As for `CC1Sc2ccccc2N(CC(=O)N(C(C)C)C(C)C)C1=O` (stereo not given), the figure is 0.406; as for `CCN1CCN(C(=O)CN(Cc2ccccc2)S(C)(=O)=O)CC1`, 0.371; as for `O=C(/C=C/c1ccc(Cl)cc1)c1cccnc1`, 0.357.
As for `COc1ccc(C)cc1NC(=O)CSc1nnnn1Cc1ccccc1`, the figure is -0.544; as for `Cc1cccc(C(C)(C)C)c1OCCCCN1CCCC1`, 2.48; as for `O=C1Nc2ccc(S(=O)(=O)N3CCCCCC3)c3cccc1c23`, -0.375.
Turning to `COc1ccccc1CNC(=O)C(NS(=O)(=O)c1ccc2c(c1)oc(=O)n2C)C(C)C` (stereo not given), the z-score was determined as 0.236.
Next, `CCS(=O)(=O)Nc1ccc(C2=NN(S(=O)(=O)c3ccc(F)cc3)C(c3ccco3)C2)cc1` (stereo not given): 0.14.
As for `COc1cc(-c2nc(-c3ccncc3)no2)cc(OC)c1OC`, the figure is -0.0284; as for `Cc1cccc(OCC(=O)NCCN2CCOCC2)c1`, -0.218; as for `O=S1(=O)CC(O)C(N2CCCCC2)C1` (stereo not given), 0.12.
Next, `Cn1cc(-c2nc3ccccc3[nH]2)c2ccccc21`: -1.41; `CCCc1nc(SCC(=O)Nc2cc(Cl)ccc2OC)c2c(=O)n(C)c(=O)n(C)c2n1`: 0.111; `CCOc1ccc(NS(=O)(=O)c2ccc(SC)cc2)cc1`: -0.406.
Take `Clc1ccc(-c2nc3ccccn3c2CN2CCOCC2)cc1`: the z-score was -0.131.
`Cc1ccccc1C(=O)Nc1c(C(=O)N2CCCC2)cnn1-c1ccccc1`: the z-score was 0.78.
Next, `Fc1cccc(Cl)c1CSc1nnc(COc2cccc3cccnc23)o1`: -0.675; `CCc1nnc(NC(=O)CSc2nc3ccccc3s2)s1`: -0.228.
Next, `Brc1c(CSc2nc3ccccc3o2)nc2ncccn12`: 0.922.
The compound `COCCNC(=S)N/N=C(\C)c1cccc([N+](=O)[O-])c1` had a z-score of -0.0589.
`CCCCOc1c(Br)cc(/C=N/O)cc1OCC`: the z-score came out at 2.8.
As for `COc1cc(C(=O)Nc2nc3ccc4nc(C)sc4c3s2)cc(OC)c1OC`, the figure is 0.0225; as for `N#CC1=C(N)C(C#N)(C#N)C(c2cccnc2)C2CC(c3ccccc3)CC=C12` (stereo not given), -2.19; as for `CCOC(=O)N1CCN(C(=O)CCSc2ccc(C)cc2)CC1`, 0.222.
As to `CC(=O)Nc1ccc(S(=O)(=O)Nc2nc3ccccc3nc2Sc2nncn2C)cc1`, the z-score stood at 0.338.
As for `CCn1c(C)nc2cc(C(=O)OC(C(F)(F)C(F)F)C(F)(F)C(F)F)ccc21`, the figure is 0.0729.
For `O=C(COC(=O)Cc1ccsc1)NCc1ccc(Cl)cc1`, the z-score is -0.335.
Compound `Cc1ccc(-n2c(-c3ccccc3)n[nH]c2=S)cc1` came in with a z-score of 0.357.
As for `O=C(NC1CCCCC1)c1ccccc1NC(=O)C1CC1`, the figure is 0.156; as for `CCc1c(C)nc2ncnn2c1NCc1cccs1`, -0.291; as for `O=C(Cn1c(NCCCO)nc2ccccc21)c1ccc(Br)cc1`, -0.528.
In the case of `CCOc1nc(C)ccc1-c1noc(-c2ccncc2)n1`, the z-score is 0.775.
For `Cn1c(CN2CCCC2)nc2cc(NC(=O)c3ccco3)ccc21`, the z-score is 0.286.
Next, `CCCc1nn(C)c(C(=O)Nc2ccc(C(C)(C)C)cc2)c1Cl`: -0.136; `CCOCCn1c(=NC(=O)/C=C/c2ccccc2Cl)sc2cc(NC(C)=O)ccc21`: 0.0288; `COCC(=O)Nc1nc2ccccc2s1`: 0.294.
`CSc1oc(-c2ccco2)nc1S(=O)(=O)c1ccccc1` registered a z-score of 0.155.
As for `Cc1nnc(SCc2ccc(CC(=O)O)cc2)o1`, the figure is -0.59; as for `CCC(C)NC(=O)Cn1c(COc2ccc(Cl)cc2Cl)nc2ccccc21` (stereo not given), -2.32.
As to `CCC1CCCCN1S(=O)(=O)c1ccc(C(=O)Nc2nnc(-c3cccs3)o2)cc1` (stereo not given), the z-score was found to be 0.233.
Next, `Cc1ccc(Cl)cc1N1CCN(C(=O)c2cn(C)c(=O)c3c2c2ccccc2n3C)CC1`: 0.0829; `Cc1c(Cl)cccc1NC(=S)N1CCN(Cc2ccc3c(c2)OCO3)CC1`: 0.334.
The compound `COC(C)(C)c1cc(C(C)(C)C)nc(N)n1` came in with a z-score of 0.189.
In turn, `COC(=O)c1ccccc1NC(=O)COc1ccc(S(=O)(=O)N2CCCC2)cc1C` gave a z-score of -0.752.
Next, `CCOC(=O)c1cc2c(=O)n3ccccc3nc2n(C(C)C)c1=NC(=O)c1c(-c2c(F)cccc2Cl)noc1C`: 0.205; `CC1CCCCC1NC(=O)COC(=O)COc1ccc(Cl)cc1` (stereo not given): -0.238.
With `Cc1cc2cc3c(cc2nc1SCc1ccccn1)OCCO3`, the z-score was determined as 0.0708.
Next, `Cc1ccc(S(=O)(=O)C2(C(=O)N3CCCC(C)C3)CC2)cc1` (stereo not given): -0.0386; `COc1ccc(Cl)cc1-c1nc(-c2ccncc2)no1`: 0.768.
Next, `CCCCCn1c(CN2CCN(C(=O)OCC)CC2)nc2c1c(=O)[nH]c(=O)n2C`: 0.29; `O=C(NCCSc1ccc(Cl)cc1)c1ccco1`: -0.0895; `O=C(NC1CCCCCCC1)c1ccccc1O`: 0.244.
Next, `CC1CC(=O)Nc2ccccc2N1S(=O)(=O)c1ccc(Br)cc1` (stereo not given): -0.323; `CC(=O)c1ccc2cccc3c2c1N=CN3C`: -0.158; `Cc1ccc(-c2cc(C(=O)NCCN3CCOCC3)no2)cc1`: -0.195.
Regarding `CCn1c(O)c(C=Nc2ccccc2)n(-c2ccccc2)c1=S`, the z-score was -0.533.
Next, `O=C(NCCC1=CCCCC1)C1CCCN(S(=O)(=O)c2cnc[nH]2)C1` (stereo not given): 1.49; `CCOC(=O)c1sc(NC(=O)c2ccc(CC)s2)nc1C`: -0.469.
`CCC(CC)C(=O)NCCNC(=O)C(CC)CC`: the z-score is 0.00489.
As for `COc1ccccc1NC(=O)CSc1nnc(-c2ccncc2)n1CC1CCCO1` (stereo not given), the z-score is -0.345.
With `CCCc1nccn1S(=O)(=O)c1cc(OC)ccc1OC`, the z-score came out at 0.149.
The compound `CCOc1cccc2cc(C(=O)Nc3cc(C)on3)c(=O)oc12` gave a z-score of -0.339.
On to `N#Cc1c(-c2ccccc2)nc(SCc2nc(N)nc(N3CCCCC3)n2)[nH]c1=O`, for which the z-score was -0.874.
Consider `Cc1ccc(NC(=O)Cc2nnc(SCC(=O)c3ccc(Br)cc3)n2C)cc1Cl`, for which the z-score was 0.859.
As for `Cc1cccn2c(=O)c(C=NCc3ccco3)c(Nc3ccc(SC(F)F)cc3)nc12`, the figure is -0.136.
As for `CC(C)(C)c1ccccc1OCCCCN1CCCC1`, the figure is 2.06; as for `CCC(C)(CC(=O)N(C)CCC#N)c1ccccc1` (stereo not given), -0.0613.
`Cc1ccc(C)c(Nc2nc3nonc3nc2N2CCOCC2)c1` came in with a z-score of 0.382.
Compound `CCOC(=O)CSC1=N/C(=C\c2cc(OC)c(OC)c(OC)c2)C(=O)N1C` displayed a z-score of -0.241.
Take `CC1CCC(C(C)C)C(OCC(O)CN2CCN(Cc3ccccc3)CC2)C1` (stereo not given): the z-score came out at 0.223.
Next, `CCN1CCN(C(=O)C2CCN(C(=O)c3cc4sccc4n3CC)CC2)CC1`: 2.56; `O=C(Nc1ccccc1)c1ccc(NCC2CCCO2)c(S(=O)(=O)N2CCOCC2)c1` (stereo not given): -0.736; `C=C(C)Cn1c(SCC(=O)O)nnc1-c1ccc(OC)cc1`: 0.199.
`CCCOc1ccc(/C=C2\SC(=S)N(CC3CCCO3)C2=O)cc1` (stereo not given) showed a z-score of 0.0404.
Next, `CS(=O)(=O)N1Cc2ccccc2CC1C(=O)Nc1ccccc1C(N)=O` (stereo not given): 0.539.
